Experimental data published in publication PMC10668032.
This is one part of the list. At the low end of the ranking the order means little.

target: SIX1-Q177R homeodomain (UniProt Q15475); assay: universal protein binding microarray; conditions: Universal all-10-mer PBM (8x60K, AMADID 030236), 300 nM GST-tagged protein, Alexa Fluor 488 anti-GST; buffer, salt, pH and temperature not stated; high values mean tight binding; most listed sequences are background and not binding sites; double strand, one strand shown

Sequence	binding signal [E-score]
GAACCATA	-0.0786
ACTGGAAG	-0.00318
GTCTAAGA	-0.0265
GCGACCGA	-0.158
CGGGTAGA	0.0568
CACTCTAA	0.0759
ACGGAGCT	-0.139
CACACCAA	0.38
GATCCACA	0.157
GGACTCCC	0.121
GAAATCCC	-0.0848
CTGACCCC	0.283
CACAAATC	0.0318
ATAAAAAA	-0.176
CCTCTTTC	-0.122
CCCCTACC	0.237
TAAGGCAA	-0.156
ACTCCCGC	0.253
ATTGGAAA	-0.235
CTAGATCC	-0.0304
ATCGATTC	-0.00258
AAGGAAGA	-0.0719

Sequence	binding signal [E-score]
CTTGTTCC	-0.0869
ATAGGAGG	-0.027
CGTAAAGC	-0.185
GACACGTA	0.39
CGTTGCTC	-0.0275
GTGGATGA	-0.00284
GGGATTCA	0.128
CCAACACA	0.163
ATGTTGAA	-0.105
AGAAGAAT	-0.0734
ACTAGCAG	-0.123
GCTGTAAC	-0.0955
AGTGTGAA	0.276
CCGTGGCA	0.0338
AGTGTGAC	0.359
CTTTCAGC	0.00261
CAGTGAAC	0.0325
AGTGACCC	0.234
CTTATGTA	-0.161
GGGTTGCA	0.121
AATCGCTG	-0.306
TGCATCCA	-0.181

Sequence	binding signal [E-score]
AGCGTGTA	0.419
TAAGGATA	-0.0122
AAATTTAA	-0.178
AAGGGTTA	0.0235
GCTCGCGA	-0.141
AGGTTGAG	0.0636
TACTTTCA	-0.111
CTGCACGA	0.0614
GTTTTGTA	0.0496
AGCACGGC	0.102
GATTCAAA	-0.208
CCTCTGCC	0.00146
AGCGGCTG	-0.238
GGGGTTAA	0.198
TATAAAAA	-0.024
AACTAGCA	0.022
AGTCTATG	-0.303
GGCCGCCA	-0.247
GGCCTGGA	-0.0463
AAATGAGC	-0.331
GCTTAGCC	-0.0946
GCGAGCGC	-0.0369

Sequence	binding signal [E-score]
ATACCGAT	-0.0217
AGCGGGAT	0.083
AGAGGACT	-0.141
CTGTCGGC	-0.134
GAAAGCTC	0.0463
CGGGCTAC	0.0741
TCGTGGAA	-0.104
AAAACATT	-0.319
GCTAGTCC	-0.18
CTTGCTGC	-0.113
CTTAAGAA	-0.191
AGAGATAT	-0.0602
AAGGGGAT	0.0724
ACTGAACC	0.0163
CAAGTGCG	-0.00796
ATATCCAG	-0.0292
GGAAAACA	0.0194
AAGCTTTA	-0.106
ATTCTGTC	-0.209
CTGTTGCC	-0.215
AATCTGTA	-0.0288
TAAGCGGA	-0.112

Sequence	binding signal [E-score]
CCTCCCAA	-0.0632
CGCTTACG	-0.146
AGTAGGAA	-0.127
TAACAGAA	-0.213
GCGGAACA	0.149
GCAGTACC	-0.0392
CGTCGAAC	-0.151
ATCGTCAT	-0.117
CACGAGGA	0.114
TAATGGTA	0.119
GCACTAAC	-0.00999
GAAGCTGA	-0.184
AACTGTGT	0.159
AACGATCA	-0.133
AATCGCCC	-0.201
AGAGGGTA	0.146
AGGTCAGG	-0.00249
CACAGTAG	-0.0728
CGTCCGGA	-0.0376
CTCGTGCC	-0.0971
GGAAGTCA	-0.133
AGAATCTA	-0.169
